# Reference: PubChem BioAssay AID686978 (National Center for Advancing Translational Sciences (NCATS), 2013)
# The whole screen tested about 420,000 compounds, of which about 64,000 (15%) were called active. The inconclusive results got no clear call from the source; some entries with a clear call stand among them for comparison. Calls follow the shape of the dose curve; as a rule, active = well fitted inhibition curve with a large enough effect; inconclusive = small, poorly fitted or top-dose-only effect; inactive = flat fitted curve, though single readings scatter. No potency is given beside an inconclusive call; the fits are too rough.
# Experiment: qHTS for Inhibitors of human tyrosyl-DNA phosphodiesterase 1 (TDP1): qHTS in cells in absence of CPT; also: nearly all actives have a fitted effect of over 55% in size
# Conditions: DT40 Tdp1-/- hTDP1 cells, no CPT, ATP luminescence, 48 h; activity change, negative = growth inhibition: at 46.2 µM (top of the series)
# Procedure, shortened: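 A cellular qHTS used chicken DT40 cells lacking endogenous Tdp1 but carrying stably transfected human TDP1. Compounds were applied without camptothecin, and cell growth kinetics were judged by ATP-dependent luminescence after ≥48 hr.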
# % is scaled to controls: 0 for no effect and ±100 for the full control effect; potency is read from the fitted curve at half-maximal effect; tags tell the direction and shape of the fitted curve.
SMILES,Potency,"activity change, negative = growth inhibition"
Cc1ccc(-c2nc(Nc3ccc(N4CCOCC4)cc3)c3ccccc3n2)cc1,active: 23.1 µM,–
CCOCCCNC(=O)C(c1ccc(Cl)cc1)N(Cc1cccs1)C(=O)CNC(C)=O (stereo unspecified),–,inactive: -0.802%
O=S(=O)(N/N=C/c1ccccc1F)c1ccccc1,active: 23.1 µM,–
COc1cccc(OCC(=O)NNC(=O)C(=O)Nc2cccc(C)c2)c1,–,inactive: -7.92%
Cn1c(=O)c2c(SCc3cccc(C(F)(F)F)c3)nc(-c3ccco3)nc2n(C)c1=O,"inconclusive [inhibitor, single point]",–
CCc1ccc(NC(=O)CSc2nc(-c3ccccc3Cl)nc3c2Cc2c(CO)cnc(C)c2O3)cc1,–,inactive: 0.855%
Cc1ccc(Cl)cc1N1CCN(C(=O)c2ccc(CN3CCOCC3)cc2)CC1,"inconclusive [inhibitor, single point]",–
O=C(NCc1ccccc1)N(Cc1cc2cc3c(cc2[nH]c1=O)OCO3)CC1CCCO1 (stereo unspecified),"inconclusive [inhibitor, single point]",–
O=C(CC(NC(=O)c1ccccc1)c1ccccc1)Nc1ccc(F)c(F)c1 (stereo unspecified),"inconclusive [inhibitor, single point]",–
Cc1cc(C)c2c(-n3cccc3)c(C(=O)NNS(=O)(=O)c3ccc(Br)cc3)sc2n1,–,inactive: -16%
CCOC(=O)CNC(=O)CSc1nc(-c2ccc(C)cc2)ns1,–,inactive: -20%
COc1ccc(OCCCC(=O)ON=C(N)c2ccccc2C)cc1,"inconclusive [inhibitor, single point]",–
O=c1cc2c(nn1Cc1ccc(Cl)cc1)-c1ccccc1CC2,"inconclusive [inhibitor, single point]",–
COc1ccc(-c2cc3ccc(OC)cc3cn2)cc1,"inconclusive [inhibitor, single point]",–
CC(=O)N(c1ccc(Cl)cc1)C1SC(=O)N(c2ccccc2)C1=O (stereo unspecified),"inconclusive [inhibitor, single point]",–
COc1ccc(S(=O)(=O)N2CCCCCC2)cc1C(=O)N1CCN(c2ccccc2C)CC1,active: 20.6 µM,–
N/C(=N\OC(=O)c1ccccc1)C(C(=O)NOC(=O)c1ccccc1)C1CCCCC1 (stereo unspecified),active: 18.4 µM,–
CS(=O)(=O)N1N=C(c2ccco2)CC1c1ccc(Cl)cc1Cl (stereo unspecified),"inconclusive [inhibitor, single point]",–
c1ccc(-c2nc(N3CCCCCC3)nc(-n3ccnc3)n2)cc1,"inconclusive [inhibitor, single point]",–
C/C(=N/NC(=O)c1ccc(C)s1)c1cccnc1,–,inactive: 15.5%
CCc1ccc2nc(N(Cc3cccnc3)C(C)=O)sc2c1,"inconclusive [inhibitor, partial curve, poor fit]",–
CCCN(CC1CC1)C(=S)NC(=O)c1ccc(S(=O)(=O)N2CCOCC2)cc1,"inconclusive [inhibitor, single point]",–
O=C1c2cccnc2C(=O)N1Cc1ccc(S(=O)(=O)N2CCOc3ccccc32)cc1,–,inactive: -18.4%
O=C(CC(Nc1ccc(Cl)cc1Cl)C(=O)O)c1ccccc1 (stereo unspecified),"inconclusive [inhibitor, partial curve]",–

SMILES,Potency,"activity change, negative = growth inhibition"
Cc1ccc(Cc2cnc(N3C(=N)SC(C)C3=O)s2)cc1 (stereo unspecified),"inconclusive [inhibitor, single point]",–
Cc1ccc(C(=O)N/N=C\c2ccc(-c3ccc(Cl)cc3)o2)cn1,"inconclusive [inhibitor, single point]",–
Cc1ccc2c(c1)N(C(=O)CCC(=O)N1CCN(c3ccccc3)CC1)CCO2,"inconclusive [inhibitor, partial curve]",–
O=C(NCc1ccc(N2CCCC2=O)cc1)C1CCC(=O)N(Cc2ccccc2F)C1 (stereo unspecified),–,inactive: -0.246%
O=C1C(NS(=O)(=O)c2cccs2)=C(N2CCN(c3cccc(Cl)c3)CC2)C(=O)c2ccccc21,active: 23.1 µM,–
CCOC(=O)c1ccc(CN(Cc2ccc(Cl)cc2Cl)S(=O)(=O)c2ccc(F)c(C)c2)cc1,"inconclusive [inhibitor, single point]",–
CC(=O)Nc1ccccc1NC(=O)c1ccccc1,–,inactive: 6.67%
O=C(CSc1oc(-c2ccco2)nc1S(=O)(=O)c1ccc(Br)cc1)c1ccccc1,"inconclusive [inhibitor, single point]",–
Cc1ccc(C)c(NC(=O)CN(C)C(=O)c2ccccc2Cc2ccccc2)c1,"inconclusive [inhibitor, partial curve]",–
CCCCCCCCCCCC(=O)c1c(O)cccc1O,"inconclusive [inhibitor, single point]",–
CSc1nnc(CCNC(=O)c2ccc(-c3cccc(F)c3)cc2)n1-c1ccc(F)cc1,–,inactive: -14%
CCN1C(=O)[C@H]2[C@@H](c3ccc(OC)cc3)N[C@]3(CCCN(Cc4ccc(Cl)cc4)C3=O)[C@H]2C1=O,"inconclusive [inhibitor, partial curve, poor fit]",–
CCS(=O)(=O)c1ccc(O)c(Nc2cc(C)nc(SC)n2)c1,"inconclusive [inhibitor, single point]",–
COC(=O)c1cccc(NC(N)=S)c1,–,inactive: -8.38%
COC(=O)c1ccc(/C=N/NC(=O)C(=O)N2CCCCCC2)cc1,–,inactive: -15.6%
CCOC(=O)c1cc(S(=O)(=O)N2CCC(C)CC2)cn1C,–,inactive: -32.3%
O=C(CS(=O)(=O)Cc1ccccc1)N1CCN(c2cccc(C(F)(F)F)c2)CC1,"inconclusive [inhibitor, partial curve]",–
Cc1ccc(S(=O)(=O)C(CNC(=O)c2ccc(F)c(F)c2)c2ccco2)cc1 (stereo unspecified),"inconclusive [inhibitor, single point]",–
CSc1ccc2c(c1)C(N1CCN(C)CC1)Cc1ccc(F)cc1S2 (stereo unspecified),active: 16.4 µM,–
O=C(c1ccc(N2CCCCC2)c([N+](=O)[O-])c1)N1CCOCC1,–,inactive: -12.8%
O=c1c2c3nc4ccccc4nc3n(/N=C/c3ccco3)c2ncn1CCC1=CCCCC1,active: 20.6 µM,–
Cc1cccc(N2CCN(C(=O)COc3noc4nc(C)cc(C)c34)CC2C)c1 (stereo unspecified),"inconclusive [inhibitor, single point]",–
C=CCN(c1ccccc1)S(=O)(=O)c1ccc2c(c1)NC(=O)C(C)S2 (stereo unspecified),"inconclusive [inhibitor, single point]",–
O=C(NCCCCc1ccccc1)c1cccc(NC(=O)c2ccccc2)c1,"inconclusive [inhibitor, single point]",–

SMILES,Potency,"activity change, negative = growth inhibition"
CC(=O)Nc1ccc(S(=O)(=O)O)c(OC(C)=O)c1,–,inactive: 10%
Cn1c(=O)c(C(=O)CCl)c(N)n(Cc2ccccc2)c1=O,active: 4.61 µM,–
O=C(NCCCN1CCCC1=O)c1ccc(S(=O)(=O)Nc2ccccc2)cc1,"inconclusive [inhibitor, single point]",–
Cc1cc(=O)n2[nH]c(-c3ccsc3-n3c(C)ccc3C)cc2n1,"inconclusive [inhibitor, single point]",–
Oc1cc(-c2nc3ccccc3s2)cc2c1OCCN(Cc1cccn1-c1ncccn1)C2,active: 16.4 µM,–
CCC(C)Cn1c(/C=C/c2ccccc2)nc2ccccc21 (stereo unspecified),active: 9.2 µM,–
O=C(Oc1ccc(OC(=O)c2ccco2)c(S(=O)(=O)c2ccc(Br)cc2)c1)c1ccco1,"inconclusive [inhibitor, single point]",–
CCCCn1c(=O)c2oc3ccccc3c2n(Cc2cccc(F)c2)c1=O,"inconclusive [inhibitor, partial curve, poor fit]",–
CC(=O)c1ccc(N(C(=O)c2csnn2)C(C(=O)NC2CCCC2)c2ccccc2)cc1 (stereo unspecified),–,inactive: -18.4%
O=C(NCC1CCCO1)/C(=C/c1cn(-c2ccccc2)nc1-c1cccnc1)NC(=O)c1ccccc1 (stereo unspecified),"inconclusive [inhibitor, single point]",–
Cc1ccc(S(=O)(=O)c2nc(Nc3ccccc3)sc2Cl)cc1,"inconclusive [inhibitor, single point]",–
C=C1CCC2C(C)(C)[C@@H](O)CC[C@@]2(C)[C@@H]1COc1ccc2ccc(=O)oc2c1 (stereo partly specified),"inconclusive [inhibitor, partial curve]",–
COc1ccc(C(=O)N2CCN(c3ncccn3)CC2)cc1[N+](=O)[O-],–,inconclusive: -34% [inhibitor]
Cc1cc(C(=O)NN)n[nH]1,–,inactive: -6.48%
Cc1c[n+](CC(=O)c2ccccc2)cs1,–,inactive: -16.8%
Cc1cc(C)cc(OCC(=O)NC2CCCc3ccccc32)c1 (stereo unspecified),"inconclusive [inhibitor, single point]",–
O=C(Nc1ccon1)c1ccc(OC2CCCC2)cc1,"inconclusive [inhibitor, partial curve]",–
CCc1nnc2c(Nc3cccc(F)c3)nc3ccc(C(=O)c4ccccc4)cc3n12,active: 2.91 µM,–
CN(C)C(=O)CCc1ccc2c3c([nH]c2c1)[C@]1(CCc2ccccc2)[C@@H](C(=O)N2CCCCC2)C[C@H](CC(=O)NC(C)(C)C)C(=O)N1CC3,"inconclusive [inhibitor, single point]",–
CC1(C)C(=O)C=C(N2CCCCC2)c2ccccc21,"inconclusive [inhibitor, single point]",–
CCN(CC(=O)Nc1c(F)cccc1F)C(=O)CSCC(=O)Nc1cccc(C)c1,–,inactive: -4.89%
Cc1nnc2ccc(N3CCCCC3)nn12,–,inactive: -6.19%
O=C(/C=C/c1ccc(Cl)c([N+](=O)[O-])c1)Nc1cccc(NC(=O)c2ccco2)c1,"inconclusive [inhibitor, single point]",–
